{
  "source": "paper PMC4336329",
  "about": "(PLoS ONE, 2015)",
  "note": "About 2,200 (0.71%) of roughly 310,000 compounds showed an effect of 50% or more. Effects have a minus sign here. The list shows a part of the results.",
  "data": [
    {"target": "human ether-à-go-go-related gene (hERG) potassium channel (human, UniProt Q12809)", "sequence (Q12809 whole entry, looked up)": "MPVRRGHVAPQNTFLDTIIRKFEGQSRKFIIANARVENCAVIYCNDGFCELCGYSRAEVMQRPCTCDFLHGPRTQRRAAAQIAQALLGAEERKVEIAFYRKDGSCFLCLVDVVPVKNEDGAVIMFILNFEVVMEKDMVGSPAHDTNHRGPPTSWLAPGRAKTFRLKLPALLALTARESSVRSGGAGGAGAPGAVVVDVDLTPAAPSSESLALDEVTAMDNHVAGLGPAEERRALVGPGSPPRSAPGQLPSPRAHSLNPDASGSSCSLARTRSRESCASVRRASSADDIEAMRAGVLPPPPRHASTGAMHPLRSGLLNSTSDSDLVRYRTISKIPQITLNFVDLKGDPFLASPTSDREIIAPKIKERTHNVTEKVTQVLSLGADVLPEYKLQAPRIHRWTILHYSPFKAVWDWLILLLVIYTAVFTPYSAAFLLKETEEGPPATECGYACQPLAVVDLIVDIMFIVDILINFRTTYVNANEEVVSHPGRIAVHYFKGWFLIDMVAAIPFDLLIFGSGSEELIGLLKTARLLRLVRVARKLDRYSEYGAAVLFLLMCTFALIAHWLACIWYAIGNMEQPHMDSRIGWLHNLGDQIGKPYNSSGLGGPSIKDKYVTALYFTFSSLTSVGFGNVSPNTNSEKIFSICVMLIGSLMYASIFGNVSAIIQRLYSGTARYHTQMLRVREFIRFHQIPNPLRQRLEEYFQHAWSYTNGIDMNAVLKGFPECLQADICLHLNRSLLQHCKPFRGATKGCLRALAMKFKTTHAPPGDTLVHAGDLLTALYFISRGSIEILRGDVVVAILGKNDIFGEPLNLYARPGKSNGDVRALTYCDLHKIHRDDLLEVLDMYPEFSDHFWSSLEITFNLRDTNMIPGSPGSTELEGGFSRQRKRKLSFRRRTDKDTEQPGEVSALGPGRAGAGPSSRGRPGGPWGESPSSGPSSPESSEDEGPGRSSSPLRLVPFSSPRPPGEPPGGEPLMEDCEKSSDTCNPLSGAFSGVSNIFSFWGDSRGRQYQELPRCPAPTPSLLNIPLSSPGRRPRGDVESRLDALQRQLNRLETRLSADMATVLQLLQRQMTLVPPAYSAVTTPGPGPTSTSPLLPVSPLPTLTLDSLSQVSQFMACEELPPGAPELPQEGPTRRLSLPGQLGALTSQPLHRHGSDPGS", "test": "primary screen, population patch clamp on CHO cells stably expressing hERG", "units": {"hERG current change (%, negative = inhibition) at 1uM": "%"}, "values": [
      {"smiles": "CN(C)c1ccc(-c2noc(C3CCN(S(=O)(=O)c4ccc(C(=O)O)cc4)CC3)n2)cc1", "hERG current change (%, negative = inhibition) at 1uM": 10.2},
      {"smiles": "CCN(CC)S(=O)(=O)c1cccc(C(=O)N[C@H](C(=O)OCC(N)=O)C(C)C)c1", "hERG current change (%, negative = inhibition) at 1uM": 5},
      {"smiles": "O=C(COC(=O)/C=C/c1ccccc1Cl)NCCNC(=O)COC(=O)/C=C/c1ccccc1Cl", "hERG current change (%, negative = inhibition) at 1uM": 14.1},
      {"smiles": "COc1cccc(C(=O)OCCN2CCOCC2)c1.Cl", "hERG current change (%, negative = inhibition) at 1uM": 3.73},
      {"smiles": "Cn1c(C(=O)O)c(CC(=O)Nc2ccc3c(c2)OCCO3)c2ccccc21", "hERG current change (%, negative = inhibition) at 1uM": 19.2},
      {"smiles": "O=C(NCCc1ccccc1)C1CCN(Cc2ccccc2F)CC1.O=C(O)C(=O)O", "hERG current change (%, negative = inhibition) at 1uM": 10.1},
      {"smiles": "c1ccc(C2=Nc3c(ccc4ccccc34)C(c3ccncc3)=NN2)cc1", "hERG current change (%, negative = inhibition) at 1uM": 8.24},
      {"smiles": "CCC(C(=O)NCCCN1CCCC1=O)n1c2ccccc2c2nc(=O)cc(C)n21", "note": "(stereo not shown)", "hERG current change (%, negative = inhibition) at 1uM": 13.4},
      {"smiles": "O=C(CCc1nnc2ccc(N3CCC4(CC3)OCCO4)nn12)Nc1ccc(F)cc1", "hERG current change (%, negative = inhibition) at 1uM": -0.576},
      {"smiles": "Cc1cc(NC(=O)c2nn(C)c(C)c2[N+](=O)[O-])no1", "hERG current change (%, negative = inhibition) at 1uM": 6.53},
      {"smiles": "Cc1ccc(-c2csc3nnc(SCC(=O)Nc4nsc(-c5ccccc5)n4)n23)cc1", "hERG current change (%, negative = inhibition) at 1uM": -19.1},
      {"smiles": "COC(=O)c1cccc(CSc2nc3ccccc3[nH]2)c1", "hERG current change (%, negative = inhibition) at 1uM": 4.94},
      {"smiles": "Cc1ccc(C(=O)Nc2ccc(Br)c(C(F)(F)F)c2)cc1", "hERG current change (%, negative = inhibition) at 1uM": 10.2},
      {"smiles": "CCc1nnc2n1N=C(c1ccc(Br)cc1)CS2", "hERG current change (%, negative = inhibition) at 1uM": 3.84},
      {"smiles": "Cc1ccc(NC(=O)CCC(=O)OCC(=O)c2ccc(-c3ccccc3)cc2)cc1", "hERG current change (%, negative = inhibition) at 1uM": 1.24},
      {"smiles": "Cc1ccc(C(=O)CCC2CCCC2=O)cc1", "note": "(stereo not shown)", "hERG current change (%, negative = inhibition) at 1uM": 7.21},
      {"smiles": "Cc1ccc(C)c(/C(O)=C2\\C(=O)C(=O)N(CCCn3ccnc3)C2c2cccnc2)c1", "note": "(stereo not shown)", "hERG current change (%, negative = inhibition) at 1uM": 1.45},
      {"smiles": "O=C(CCNS(=O)(=O)c1cccs1)Nc1nccs1", "hERG current change (%, negative = inhibition) at 1uM": 8.16},
      {"smiles": "CC(=O)Nc1ccccc1-c1nnn(CC(=O)Nc2ccc3c(c2)OCCO3)n1", "hERG current change (%, negative = inhibition) at 1uM": 15.2},
      {"smiles": "COC(=O)c1cc(C)sc1NC(=O)CN1CCN(C(=O)c2ccco2)CC1", "hERG current change (%, negative = inhibition) at 1uM": -3.32},
      {"smiles": "O=C(Cc1ccccc1)NC1CCN(C(=O)c2ccc([N+](=O)[O-])cc2)CC1", "hERG current change (%, negative = inhibition) at 1uM": -17.4},
      {"smiles": "Cn1nccc1C(=O)N1CCCC(N2CCN(c3cccc(C(F)(F)F)c3)CC2)C1", "note": "(stereo not shown)", "hERG current change (%, negative = inhibition) at 1uM": 5.64},
      {"smiles": "Cc1onc(-c2c(Cl)cccc2Cl)c1C(=O)NCc1ccccn1", "hERG current change (%, negative = inhibition) at 1uM": 7.35},
      {"smiles": "CCOC(=O)N1CCN(c2cc(C)c([N+](=O)[O-])cc2F)CC1", "hERG current change (%, negative = inhibition) at 1uM": 4.14},
      {"smiles": "CCCCNC(=O)NS(=O)(=O)c1cnccc1Sc1ccc(Cl)cc1", "hERG current change (%, negative = inhibition) at 1uM": 13.2},
      {"smiles": "N#Cc1c(-c2ccccc2)nc(SCc2ccc([N+](=O)[O-])cc2)[nH]c1=O", "hERG current change (%, negative = inhibition) at 1uM": 17.5},
      {"smiles": "CCOC(=O)Cn1c(CN(Cc2ccccc2)Cc2ccccc2)nc2c1c(=O)[nH]c(=O)n2C", "hERG current change (%, negative = inhibition) at 1uM": 10},
      {"smiles": "O=C(COC(=O)c1ccc([N+](=O)[O-])cc1)Nc1ccc(Cl)cn1", "hERG current change (%, negative = inhibition) at 1uM": -8.1},
      {"smiles": "CCCN1CCN(CCCNC(=O)c2cc3c(s2)-c2c(C)cccc2OC3)CC1", "hERG current change (%, negative = inhibition) at 1uM": -67.5},
      {"smiles": "O=C(NCCOc1ccccc1)c1ccccc1NC(=O)C1CCCO1", "note": "(stereo not shown)", "hERG current change (%, negative = inhibition) at 1uM": 12},
      {"smiles": "CC(=O)c1ccc(C(=O)NC2CC(C)(C)Cc3c2cnn3-c2ccccc2)cc1", "note": "(stereo not shown)", "hERG current change (%, negative = inhibition) at 1uM": 5.88},
      {"smiles": "O=C(c1ccco1)N1CCCC(c2nc3c(nnn3Cc3cccc(Cl)c3)c(=O)[nH]2)C1", "note": "(stereo not shown)", "hERG current change (%, negative = inhibition) at 1uM": -3.13},
      {"smiles": "Cc1nnc(SCC(=O)N2c3ccccc3CC2C)s1", "note": "(stereo not shown)", "hERG current change (%, negative = inhibition) at 1uM": 19.9},
      {"smiles": "CCOc1c(O)ccc(/C=C2\\SC(=S)NC2=O)c1[N+](=O)[O-]", "hERG current change (%, negative = inhibition) at 1uM": 9.8},
      {"smiles": "COc1ccccc1CN(C)CC(=O)Nc1ccccc1-c1ccccc1", "hERG current change (%, negative = inhibition) at 1uM": 8.01},
      {"smiles": "COc1cc2ncc(C(=O)c3ccccc3)c(N3CCN(Cc4ccccc4)CC3)c2cc1OC", "hERG current change (%, negative = inhibition) at 1uM": 8.52},
      {"smiles": "CCOc1ccc(N(CC)C(=O)CCS(=O)(=O)c2cccc3nonc23)cc1", "hERG current change (%, negative = inhibition) at 1uM": 7.63},
      {"smiles": "CCOC(=O)c1c(NC(=O)c2c(N)n(CCCOC)c3nc4ccccc4nc23)sc2c1CCCC2", "hERG current change (%, negative = inhibition) at 1uM": 8.9},
      {"smiles": "CN1CCN(C(=O)C23CC4CC(C2)CC(c2ccccc2)(C4)C3)CC1.Cl", "hERG current change (%, negative = inhibition) at 1uM": 8.4},
      {"smiles": "CCC(=O)Nc1ccc(NC(=S)NC(=O)/C=C/c2ccco2)cc1", "hERG current change (%, negative = inhibition) at 1uM": 6},
      {"smiles": "O=C(Nc1cccnc1)C1CCN(S(=O)(=O)c2cccc3nonc23)CC1", "hERG current change (%, negative = inhibition) at 1uM": 9.03},
      {"smiles": "Cc1[nH]nc2c1C(c1ccsc1C)C(C#N)=C(N)O2", "note": "(stereo not shown)", "hERG current change (%, negative = inhibition) at 1uM": 8.46},
      {"smiles": "CC(C)NS(=O)(=O)c1ccc(OCC(=O)N2CCCC2)cc1", "hERG current change (%, negative = inhibition) at 1uM": 3.05},
      {"smiles": "CN(CC(=O)Nc1ccc(F)cc1)C(=O)c1cc([N+](=O)[O-])ccc1N1CCOCC1", "hERG current change (%, negative = inhibition) at 1uM": -4.14},
      {"smiles": "Cc1ccc(/C=C2/CCc3c([nH]c4ccccc34)C2=O)cc1", "hERG current change (%, negative = inhibition) at 1uM": 16.4},
      {"smiles": "CCOC(=O)C1(CCC(C)C)CC(CSc2nc3ccccc3[nH]2)OC1=O", "note": "(stereo not shown)", "hERG current change (%, negative = inhibition) at 1uM": 0.436},
      {"smiles": "Cc1cccc(NC(=O)/C=C/c2ccc([N+](=O)[O-])s2)c1", "hERG current change (%, negative = inhibition) at 1uM": 8.58},
      {"smiles": "CCOc1cccc(NC(=O)C2CC(=O)NC(=Nc3ccccc3)S2)c1", "note": "(stereo not shown)", "hERG current change (%, negative = inhibition) at 1uM": 9.88},
      {"smiles": "COc1ccc(N=C2NN=C(c3c(C)[nH]c4ccccc34)CS2)cc1.Cl", "hERG current change (%, negative = inhibition) at 1uM": 8.61},
      {"smiles": "Cc1nc2n(COCCO)cnn2c(=O)c1Br", "hERG current change (%, negative = inhibition) at 1uM": 8.55},
      {"smiles": "Cc1cc(C)nc(NC(=O)c2cnc3sccn3c2=O)n1", "hERG current change (%, negative = inhibition) at 1uM": 11.3},
      {"smiles": "O=C1CSC2N1CCNC21CCCCC1", "note": "(stereo not shown)", "hERG current change (%, negative = inhibition) at 1uM": 7.78},
      {"smiles": "CC(=O)NC(Cc1ccccc1)C(=O)N1CCN(C(=S)NCC(C)C)CC1", "note": "(stereo not shown)", "hERG current change (%, negative = inhibition) at 1uM": 4.53},
      {"smiles": "O=c1[nH]c(-c2ccccc2)c(-c2ccccc2)o1", "hERG current change (%, negative = inhibition) at 1uM": 14},
      {"smiles": "O=C(O)[C@@H]1CCCN1C(=O)COc1ccc2c3c(c(=O)oc2c1)CCC3", "hERG current change (%, negative = inhibition) at 1uM": 8.62}
    ]}
  ]
}
